The structures appear in SMILES notation. Out of some 150,000 compounds screened, about 540 (0.36%) showed an effect of 50% or more. The list shows a part of the results.

For the assay, the system named is Plasmodium falciparum. Briefly: Primary screen in NF54 nanoGlo assay, in single point, at 2uM, 72h; a lower Z score goes with more inhibition. Type of assay: functional, Erythrocyte. To be noted: timepoint 72 hour.
By % Inhibition is commonly meant the relative decrease from the control value, in per cent. As to `CCN1CCN(c2cccc(NC(=O)c3ccc4[nH]c5ccccc5c(=O)c4c3)c2)CC1`, the “% Inhibition” value is given as 92% and the Z score is recorded as -9.25.
With `CCC(CC)c1nnc(NC(C)=O)s1`, the “% Inhibition” value was -4% and the Z score is 0.79.
For `CC(=O)Nc1ccnn1C1CCCCC1`, in that order: 3% and -0.32.
With `CC(C)[C@H](NC(=O)N1CCN2C(CNS2(=O)=O)C1)C(F)(F)F` (stereo partly drawn), the “% Inhibition” value is listed as -9% and the Z score is listed as 1.71.
For `CCc1nc2ncc(-c3ccnc(N4CCC(C)CC4)n3)c(C)n2n1`, in that order: -7% and 0.96.
Turning to `CC(NC(=O)C1CCCN(C(=O)c2cccs2)C1)c1ccncc1` (stereo not drawn), the “% Inhibition” value was -10% and the Z score was 1.21.
For `Cc1[nH]nc(C(=O)N2CCC(C(C)O)C2)c1C` (stereo not drawn), in that order: -11% and 1.77.
As to `C[C@@H]1CC(=O)N[C@H](C(=O)NCC2(C)CCN(C(=O)[C@@H]3C[C@H](C)CC(=O)N3)C2)C1` (stereo partly drawn), the “% Inhibition” value was -22% and the Z score turned out to be 1.85.
Turning to `CN(Cc1cnccn1)C(=O)c1cc(F)c(F)cc1Cl`, the “% Inhibition” value is 3% and the Z score is recorded as -0.56.
With `CN(C)C(=O)N1CCC(CNC(=O)c2ccc(Cl)s2)CC1`, the “% Inhibition” value is -9% and the Z score stood at 1.05.
On to `CC(C)n1nccc1C(=O)N1CCN(Cc2nnc[nH]2)CC1`, for which the “% Inhibition” value was 0% and the Z score is -0.02.
As for `Cc1cccc(-c2nc3ccc(F)cc3n2C(C)C)c1NC(=O)Cc1ccccc1Cl`, the “% Inhibition” value is listed as 12% and the Z score was -1.23.
For `O=C(c1ccc(=O)[nH]c1)N1CCC[C@H]1c1nc(-c2ccccc2)no1`, in that order: -12% and 1.09.
Regarding `Cc1c(C(=O)N2CCCCC2)sc2ncnc(N(C)CCc3ccccn3)c12`, the “% Inhibition” value is listed as -12% and the Z score turned out to be 1.31.
In the case of `CCN(CC)S(=O)(=O)c1ccc2c(c1)cc(C(=O)N1CCC(Cc3ccccc3)CC1)n2C`, the “% Inhibition” value is -7% and the Z score is reported as 1.3.
For `NC(=O)Cn1nc2n(c1=O)CCN(Cc1ccccc1F)C2=O`, the “% Inhibition” value is -17% and the Z score is on record as 1.94.
For the molecule `COc1cc(OC)cc(-c2nn(CN3CCC[C@H](C(=O)Nc4ccccn4)C3)c(=S)o2)c1`, the “% Inhibition” value was found to be 5% and the Z score is -0.9.
For the molecule `Cc1c(C(=O)N2CCN(c3nc(N)ns3)CC2)nnn1-c1ccc2c(c1)OCCO2`, the “% Inhibition” value is listed as -10% and the Z score worked out at 1.23.
On to `O=C(COc1ccc(Cl)cc1)n1c2ccccc2c2ccccc21`, for which the “% Inhibition” value came to 39% and the Z score is given as -5.68.
In the case of `CCc1nn(C)cc1NC(=O)[C@H](C)NS(=O)(=O)c1c(C)nn(C)c1C`, the “% Inhibition” value came to 7% and the Z score is recorded as -1.38.
For the molecule `Cn1nc(C(=O)NC2CCCCCCC2)c2ccccc2c1=O`, the “% Inhibition” value is reported as -6% and the Z score is on record as 1.
Consider `CCOc1ccc(S(=O)(=O)Nc2ccccc2CCc2nc3ccccc3[nH]2)cc1`, for which the “% Inhibition” value is -10% and the Z score stood at 1.19.
Consider `O=C(Nc1cnn(CC(=O)N2CCCCC2)c1)c1ccccc1`, for which the “% Inhibition” value is 5% and the Z score is -0.66.
Consider `Cn1nc(CN2CCC(OCc3ccc(Cl)c(Cl)c3)CC2)[nH]c1=O`, for which the “% Inhibition” value is on record as -4% and the Z score was 0.55.
With `Cc1cccc(CN2CCN(C(=O)c3cnc(NC(C)C)nc3)[C@@H](C)C2=O)c1`, the “% Inhibition” value is listed as -7% and the Z score worked out at 1.
Turning to `O=C(Nc1ccc(-c2ncco2)cc1)C1([C@@H]2CCCCO2)CCC1`, the “% Inhibition” value is on record as -11% and the Z score amounted to 1.16.
With `O=C(N[C@@H](c1ccc(F)cc1)c1ccccc1Cl)C1CCOCC1`, the “% Inhibition” value turned out to be 1% and the Z score is reported as -0.06.
`Cc1nn(-c2ccccc2)c2sc(-c3noc(-c4cccs4)n3)cc12`: the “% Inhibition” value came to 8% and the Z score is recorded as -0.97.
In the case of `Cc1c(C(=O)NCc2ccccc2)cc(-c2ccccc2)n1-c1ccc(F)cc1`, the “% Inhibition” value is recorded as 6% and the Z score was -0.88.
On to `Cc1cnc(C)n1C1CCN(S(=O)(=O)c2cccc3nsnc23)CC1`, for which the “% Inhibition” value is recorded as -9% and the Z score was 1.24.
For the molecule `CC(C)c1ccc(NC(=O)N2CCC3OCCN(C)C3C2)cc1F` (stereo not drawn), the “% Inhibition” value is 9% and the Z score is given as -1.19.
For `Cc1ccc2c(c1)N(C)C(=O)c1cc(NC(=O)c3cccc(Br)c3)ccc1O2`, in that order: 10% and -1.58.
For `O=C(C1CCN(S(=O)(=O)N2CCOCC2)CC1)N1CCCn2nc(-c3ccc(C(F)(F)F)cc3)cc2C1`, in that order: -19% and 1.68.
As for `O=C(Nc1nc2ccccc2s1)c1ccc(OCc2ccccc2)cc1`, the “% Inhibition” value was -6% and the Z score is listed as 0.83.
For `COc1ccc(CCNC(=O)c2c(C)noc2-c2ccncc2)cc1`, in that order: -5% and 0.48.
Regarding `Cc1cc(C)n(Cc2nc(CC(=O)Nc3ccccn3)no2)n1`, the “% Inhibition” value is on record as -6% and the Z score stood at 1.1.
For the molecule `Cc1ccc(C)c(OCC(=O)Nc2cc(S(=O)(=O)N3CCCC3)ccc2OCC(F)(F)F)c1`, the “% Inhibition” value worked out at 3% and the Z score is listed as -0.56.
On to `CC1CN(Cc2cnn(Cc3ccccc3)c2)CC2(CCOC2)O1` (stereo not drawn), for which the “% Inhibition” value turned out to be 1% and the Z score is reported as -0.11.
For `COc1cc(OC)c(OC)cc1CN1CCC[C@H]1c1cc(C(C)C)no1`, in that order: -18% and 2.4.
Take `CC(C)CNC(=O)CNC(=O)Nc1ccc(Br)cc1`: the “% Inhibition” value is on record as -9% and the Z score is recorded as 0.79.
Regarding `COCC(=O)NCc1nccc(N2CCCC2)n1`, the “% Inhibition” value is recorded as -11% and the Z score was 1.71.
Regarding `COc1cc(Oc2ccc(C(C)C)nn2)ccc1CN1CCCC1`, the “% Inhibition” value is -23% and the Z score is given as 2.93.
Regarding `CC1CN(Cc2ccccc2)CC1NC(=O)N(C)CC1CCCOC1` (stereo not drawn), the “% Inhibition” value is -1% and the Z score is on record as 0.07.
Take `COc1cc2c(cc1Cl)CN(Cc1cn(C(C)C)nn1)CC2`: the “% Inhibition” value was -2% and the Z score is recorded as 0.43.
In the case of `Cn1cncc1CC(=O)Nc1cccc2c1OC(C)(C)CC2`, the “% Inhibition” value is -5% and the Z score is recorded as 0.66.
On to `CCC(=O)N(C1CCOCC1)C1CCN(Cc2cc(F)c(F)c(F)c2)CC1`, for which the “% Inhibition” value is reported as 1% and the Z score is listed as -0.19.
As for `O=C(OCc1ccccc1)N1CCN(c2nc3ccccc3c3nnc(C4CC4)n23)CC1`, the “% Inhibition” value was 1% and the Z score is -0.18.
On to `CC(C)c1nccn1CCc1cnn(-c2ccccc2)c1`, for which the “% Inhibition” value is -16% and the Z score was 1.92.
Turning to `O=C(Cc1ccsc1)NC(c1ccccn1)[C@H]1C[C@@H](O)C1` (stereo partly drawn), the “% Inhibition” value was -3% and the Z score is given as 0.4.
With `O=C(Nc1ccc(F)cc1F)OCC(F)(F)F`, the “% Inhibition” value is -5% and the Z score was found to be 0.64.
As for `O=S(=O)(Cc1ccccc1)N1CCC(OCCOc2ccc(F)cc2)CC1`, the “% Inhibition” value is 42% and the Z score is reported as -6.01.
Take `Cc1nc(NC(=O)[C@H](C)N(C)c2ccn(C)n2)sc1C`: the “% Inhibition” value is reported as -4% and the Z score was 0.68.
For `C[C@H]1CCCN(CC2CCN(S(=O)(=O)Cc3ccccc3)CC2)C1`, in that order: -5% and 0.73.
Turning to `CN1C(=O)C[C@H](NC(=O)Cc2cccc(O)c2)[C@H]1c1cccnc1`, the “% Inhibition” value is on record as -7% and the Z score came out at 1.34.
Turning to `Cc1nc(-c2ccccc2NC(=O)c2cccc(Cl)c2)cs1`, the “% Inhibition” value was -16% and the Z score amounted to 3.23.
On to `CC(C)n1cnnc1CN(C)C(=O)c1cccc(-c2ccccc2CO)c1`, for which the “% Inhibition” value is -3% and the Z score was found to be 0.57.
As to `Cc1ccc2nc(N3CCC(C(=O)N4CCN(C(=O)c5ccco5)CC4)CC3)[nH]c2c1`, the “% Inhibition” value is recorded as 11% and the Z score was -1.89.
As to `COc1cccc(N2CCN(C(=O)[C@H]3CC(C)(C)OC3(C)C)CC2)c1`, the “% Inhibition” value was -2% and the Z score came to 0.46.
For the molecule `O=C(NCc1ccco1)c1cccc(Nc2c(Oc3ccccc3)cnn(-c3ccc(Cl)cc3)c2=O)c1`, the “% Inhibition” value is -9% and the Z score was found to be 1.09.
On to `COCc1cc(CN2CCC[C@](C)(OC)C2)no1`, for which the “% Inhibition” value is -4% and the Z score turned out to be 0.7.
On to `CC(C)c1cc(-c2nc(-c3cn4ccccc4n3)no2)on1`, for which the “% Inhibition” value is reported as -3% and the Z score is reported as 0.46.
Consider `Cc1cn2c(-c3nc(CC(C)C)n[nH]3)csc2n1`, for which the “% Inhibition” value is -4% and the Z score came to 0.69.
For `COc1ccccc1[C@H](CNc1ncnc2sccc12)N1CCCC1`, in that order: -4% and 0.48.
For `O=S1(=O)N=C(N[C@H]2CCN(CC3CC3)C2)c2ccccc21`, in that order: -10% and 1.42.
For `COCc1cccc(CC(=O)N2CCOc3cccc(F)c32)c1`, in that order: -9% and 1.09.
In the case of `CC(=O)N1CCN(CC(=O)N2N=C(c3ccc(C)cc3)C[C@H]2c2cccc(F)c2)CC1`, the “% Inhibition” value is -6% and the Z score is reported as 1.08.
Consider `CC(C)[C@H]1CN(Cc2cc(C(N)=O)oc2C(C)(C)C)C[C@@H]1NC(=O)N(C)C`, for which the “% Inhibition” value is on record as -3% and the Z score amounted to 0.45.
For the molecule `CN(C[C@](C)(O)c1ccccc1)C(=O)c1cc2c(o1)CCCC2`, the “% Inhibition” value is 10% and the Z score is given as -1.32.
For `CC(C)(C)CN(CC(F)(F)F)C(=O)CN1C(=O)NC(C)(C)C1=O`, in that order: -8% and 1.49.
For `Cc1cnc(C(=O)OC2CC3CC(C2C)C3(C)C)cn1` (stereo not drawn), the “% Inhibition” value is -2% and the Z score is reported as 0.17.
Turning to `CN(C(=O)OC(C)(C)C)c1cccc(C#N)c1`, the “% Inhibition” value was -7% and the Z score was 0.85.
For the molecule `O[C@H]1CC[C@@H]1Nc1ncc(Cl)cc1F`, the “% Inhibition” value was determined as 2% and the Z score is recorded as -0.31.
With `Cc1ccc2nc(C[C@H]3CN(C(=O)C(C)(C)C)CC[C@H]3CC(=O)O)[nH]c2c1`, the “% Inhibition” value amounted to 28% and the Z score was -3.12.
As for `Cc1ccc(NC(=O)CN2C(=O)CCCc3cc(S(=O)(=O)N4CCOCC4)ccc32)cc1F`, the “% Inhibition” value is -9% and the Z score was 1.2.
Take `CCc1nc([C@@H]2CCCN2Cc2c(C)noc2C)no1`: the “% Inhibition” value is -7% and the Z score is given as 0.89.
For `COCCN1CCN(C(C)CC#N)CC1C` (stereo not drawn), in that order: 11% and -1.45.
`CCc1cnc(CN(C)Cc2sncc2Br)s1`: the “% Inhibition” value is listed as 8% and the Z score is listed as -0.78.
For `C[C@@H](c1ccccn1)N(C)CCC(=O)N1CCc2ccccc2C1`, the “% Inhibition” value stood at 5% and the Z score was -0.69.
Consider `CC1=NN(c2ccc(Cl)cc2)C(=O)C12Cc1ccc(Cl)cc1N1CCN(Cc3ccccc3)CC12` (stereo not drawn), for which the “% Inhibition” value is on record as -30% and the Z score is listed as 3.55.
As for `Cn1c(CN2CCOCC2)nnc1C1CCN(c2ncccc2F)CC1`, the “% Inhibition” value is reported as -5% and the Z score was found to be 0.99.
For `O=C([C@H]1C[C@@H](c2ccccc2)N2CCC[C@H]12)N1CCC(F)(F)CC1`, in that order: -10% and 1.9.
For `C=Cn1cc[n+](CC(=O)c2ccc(Cl)c(Cl)c2)c1`, in that order: -10% and 1.78.
Regarding `CCOCCCNC(=O)c1cnn(C)c1C`, the “% Inhibition” value is -8% and the Z score turned out to be 0.88.
As to `CN(CCc1ccccn1)Cc1cnccn1`, the “% Inhibition” value is reported as -16% and the Z score is reported as 2.29.
